Measured values taken from the antibiotic and cytotoxicity screens of Wong et al. (2023).
This is one part of the list.

What follows are compounds tested on HSkMC (human skeletal muscle cells) (assay: cytotoxicity call (relative viability < 0.9)). Details: 10 µM.
With `COC(=O)C1CCN(S(=O)(=O)c2c(C)n(C)c(=O)n(C)c2=O)CC1` the cytotoxicity call was “inactive”. `C[C@@H]1CCCCO[C@@H](CN(C)C(=O)Nc2ccccc2)[C@H](C)CN([C@@H](C)CO)C(=O)c2cc(NS(=O)(=O)c3cccs3)ccc2O1` was tested, and the cytotoxicity call was “inactive”. For `C[C@@H]1CN([C@H](C)CO)C(=O)c2cc(NC(=O)Nc3ccc(C(F)(F)F)cc3)ccc2O[C@@H](C)CCCCO[C@H]1CN(C)C(=O)Nc1ccc(C(F)(F)F)cc1`, the cytotoxicity call was “inactive”. In the case of `O=C(C[C@@H]1C=C[C@@H](NC(=O)CN2CCOCC2)[C@H](CO)O1)NC1CCCCC1`, the cytotoxicity call is reported as “inactive”. For `C[C@H]1CN([C@@H](C)CO)C(=O)c2cccc(NC(=O)c3ccncc3)c2O[C@H]1CN(C)Cc1ccc(Oc2ccccc2)cc1`, the cytotoxicity call was “inactive”. With `C[C@@H]1CCCCO[C@@H](CN(C)C)[C@H](C)CN([C@H](C)CO)C(=O)c2cc(NS(=O)(=O)c3cn(C)cn3)ccc2O1` the cytotoxicity call was “inactive”. `O=C(C[C@@H]1CC[C@H]2[C@@H](COC[C@@H](O)CN2C(=O)Nc2cccc(Cl)c2)O1)NCCCN1CCOCC1` was tested, and the cytotoxicity call was “inactive”. `C[C@@H]1CN([C@H](C)CO)C(=O)c2c(c3ccccc3n2C)-c2ccccc2CO[C@@H]1CN(C)Cc1cccc(F)c1` was tested, and the cytotoxicity call was “inactive”. With `C[C@@H]1CCCCO[C@H](CN(C)S(=O)(=O)c2cccs2)[C@@H](C)CN([C@@H](C)CO)C(=O)c2cc(NC(=O)Nc3ccc4c(c3)OCO4)ccc2O1` the cytotoxicity call was “inactive”. In the case of `O=C(C[C@H]1CC[C@@H]2[C@H](COC[C@H](O)CN2S(=O)(=O)c2ccccc2)O1)N[C@@H]1CCN(Cc2ccccc2)C1`, the cytotoxicity call is reported as “inactive”. `CC1(C)CC(Nc2ccc(Nc3ccccc3)cc2)CC(C)(C)N1` was tested, and the cytotoxicity call was “inactive”. `C[C@@H]1CCCCO[C@@H](CN(C)C(=O)CCCN(C)C)[C@H](C)CN([C@@H](C)CO)C(=O)c2cc(NC(=O)Nc3ccc(F)cc3)ccc2O1` was tested, and the cytotoxicity call was “inactive”. In the case of `C[C@@H]1CCCCO[C@H](CN(C)S(=O)(=O)c2ccc(Cl)cc2)[C@@H](C)CN([C@@H](C)CO)C(=O)c2cc(NC(=O)Cc3ccccc3)ccc2O1`, the cytotoxicity call is reported as “inactive”. With `Cc1noc(C)c1NC(=O)N(C)C[C@@H]1OCCCC[C@@H](C)Oc2ccc(NC(=O)CCC(F)(F)F)cc2C(=O)N([C@@H](C)CO)C[C@H]1C` the cytotoxicity call was “inactive”. For `O=C(C[C@H]1CC[C@H]2[C@@H](COC[C@@H](O)CN2C(=O)c2ccc3c(c2)OCO3)O1)NC1Cc2ccccc2C1`, the cytotoxicity call was “inactive”. For `C[C@@H]1CCCCO[C@@H](CN(C)C(=O)Nc2cccc3ccccc23)[C@@H](C)CN([C@@H](C)CO)C(=O)c2cc(NC(=O)c3ccccc3)ccc2O1`, the cytotoxicity call was “inactive”. For `Cl.NCCCCC(N)C(=O)O` (centres undefined), the cytotoxicity call was “inactive”. With `C[C@@H]1CN([C@@H](C)CO)C(=O)Cc2cc(NC(=O)Nc3cccc4ccccc34)ccc2O[C@H]1CN(C)Cc1ccc(Cl)c(Cl)c1` the cytotoxicity call was “inactive”. In the case of `C[C@@H]1CN([C@H](C)CO)C(=O)c2cc(NC(=O)Nc3ccc(F)cc3)ccc2O[C@@H]1CN(C)C(=O)Nc1ccc(C(F)(F)F)cc1`, the cytotoxicity call is reported as “inactive”. In the case of `COc1ccc(CN(C)C[C@H]2OCCCC[C@@H](C)Oc3ccc(NC(=O)CCC(F)(F)F)cc3C(=O)N([C@@H](C)CO)C[C@@H]2C)cc1`, the cytotoxicity call is reported as “inactive”. In the case of `O=C(C[C@@H]1CC[C@H]2[C@@H](COC[C@H](O)CN2C(=O)c2cccnc2)O1)NCC1CC1`, the cytotoxicity call is reported as “inactive”. In the case of `Cc1ccc(C2OC(CO)C(O)C(O)C2O)cc1Cc1ccc(-c2ccc(F)cc2)s1` (centres undefined), the cytotoxicity call is reported as “inactive”. `COc1ccc([Si](C)(C)[C@@H]2[C@@H](CCO)O[C@]3(C(=O)N(Cc4cccc(N5CCCCC5=O)c4)c4ccccc43)[C@H]2C)cc1` was tested, and the cytotoxicity call was “inactive”. In the case of `C[C@@H]1CN([C@H](C)CO)C(=O)c2cc(NC(=O)CCN3CCOCC3)ccc2O[C@H]1CN(C)S(=O)(=O)c1ccc(Cl)cc1`, the cytotoxicity call is reported as “inactive”. `CC(C)NC(=O)N(C)C[C@@H]1OCCCC[C@H](C)Oc2ccc(NC(=O)C3CCCCC3)cc2C(=O)N([C@@H](C)CO)C[C@@H]1C` was tested, and the cytotoxicity call was “inactive”. `OCC1(O)OCC(O)C(O)C1O` (centres undefined) was tested, and the cytotoxicity call was “inactive”. With `Cc1ccc(S(=O)(=O)N(C)C[C@@H]2OCCCC[C@@H](C)Oc3ccc(NS(C)(=O)=O)cc3C(=O)N([C@H](C)CO)C[C@H]2C)cc1` the cytotoxicity call was “inactive”. In the case of `C[C@H]1CN([C@@H](C)CO)C(=O)c2cc(NS(=O)(=O)c3ccc(Cl)cc3)ccc2O[C@@H]1CN(C)S(C)(=O)=O`, the cytotoxicity call is reported as “inactive”. In the case of `C[C@H](CO)N1C[C@H](C)[C@@H](CN(C)Cc2ccc(Cl)c(Cl)c2)OCCCC[C@H](C)Oc2ccc(NC(=O)Nc3ccc(C(F)(F)F)cc3)cc2C1=O`, the cytotoxicity call is reported as “active”.
